# Article PMC11995724, “Antibiotic target discovery by integrated phenotypic and activity-based profiling of electrophilic fragments” (Cell chemical biology, 2025)
# Screen size: about 3,200 compounds; about 75 (2%) showed an effect of 50% or more. The list shows a part of the results.
# Test system: T1, S. aureus MSSA476
# T1 construct: MSSA476
# Parameters: species or system S. aureus MSSA476 (TSB) or V. cholerae SAD30 (LB); 384-well bacterial growth screen at 25 uM, OD600 relative to DMSO control
# Settings: relative growth, OD600, TSB; 25 µM; inhibitor
row,SMILES,% of control remaining
1,"Cc1cc(C)cc(-c2cc(NC(=O)CCl)n(-c3ccccc3)n2)c1 [4-K04, 2-chloro-N-[3-(3,5-dimethylphenyl)-1-phenyl-1H-pyrazol-5-yl]acetamide]",80.4192%
2,"CC(Cl)C(=O)N1CCN(S(=O)(=O)c2ccccc2)CC1 (stereo not shown) [6-B12, 1-[4-(benzenesulfonyl)piperazin-1-yl]-2-chloropropan-1-one]",105.512%
3,"O=C(CCl)N(CCCO)C1CCCc2ccccc21 (stereo not shown) [7-J14, 2-chloro-N-(3-hydroxypropyl)-N-(1,2,3,4-tetrahydronaphthalen-1-yl)acetamide]",102.355%
4,"COc1ccc(C2=NN(C(=O)CCl)C(c3cccc(F)c3)C2)cc1 (stereo not shown) [6-P04, 2-chloro-1-[5-(3-fluorophenyl)-3-(4-methoxyphenyl)-4,5-dihydro-1H-pyrazol-1-yl]ethan-1-one]",145.463%
5,"C=CCNC(=O)C(C#N)=Cc1cccc(C(F)(F)F)c1 [8-L09, 2-cyano-N-(prop-2-en-1-yl)-3-[3-(trifluoromethyl)phenyl]prop-2-enamide]",104.232%
6,"Cc1cc(C)n(CC2CCN(C(=O)C(C)Cl)CC2)n1 (stereo not shown) [7-P17, 2-chloro-1-{4-[(3,5-dimethyl-1H-pyrazol-1-yl)methyl]piperidin-1-yl}propan-1-one]",106.75%
7,"CCN(Cc1ccccc1)C(=O)CCl [6-O21, N-benzyl-2-chloro-N-ethylacetamide]",79.9024%
8,"C=CC(=O)N(C)CC(=O)N1CCCCC1c1nc(C)c(C)s1 (stereo not shown) [2-E20, N-{2-[2-(4,5-dimethyl-1,3-thiazol-2-yl)piperidin-1-yl]-2-oxoethyl}-N-methylprop-2-enamide]",89.8172%
9,"COc1ccc(C=C(C#N)C(=O)NCc2ccccc2)cc1 [8-K19, N-benzyl-2-cyano-3-(4-methoxyphenyl)prop-2-enamide]",119.834%
10,"Cc1cc(S(=O)(=O)N(C)C)cc(NC(=O)CCl)c1C [4-H15, 2-chloro-N-[5-(dimethylsulfamoyl)-2,3-dimethylphenyl]acetamide]",77.7513%
11,"CC(Cl)C(=O)Nc1ccc(Cl)cc1F (stereo not shown) [4-C14, 2-chloro-N-(4-chloro-2-fluorophenyl)propanamide]",121.582%
12,"C=CC(=O)N1CCC(C(=O)OCC)(S(C)(=O)=O)CC1 [3-H04, ethyl 4-methanesulfonyl-1-(prop-2-enoyl)piperidine-4-carboxylate]",95.4288%
13,"C=CC(=O)NC(Cn1cncn1)c1ccccc1 (stereo not shown) [3-F17, N-[1-phenyl-2-(1H-1,2,4-triazol-1-yl)ethyl]prop-2-enamide]",118.415%
14,"C=CC(=O)NCC(O)c1ncccc1OC (stereo not shown) [2-J11, N-[2-hydroxy-2-(3-methoxypyridin-2-yl)ethyl]prop-2-enamide]",89.4691%
15,"C=CC(=O)N1CCC(NC(=O)Nc2ccccc2OC)CC1 [1-K13, 3-(2-methoxyphenyl)-1-[1-(prop-2-enoyl)piperidin-4-yl]urea]",120.615%
16,"CC(=O)NC1Cc2ccccc2N(C(=O)CCl)C1 (stereo not shown) [5-M20, N-[1-(2-chloroacetyl)-1,2,3,4-tetrahydroquinolin-3-yl]acetamide]",102.732%
17,"COc1ccc(C(=O)C(C)Cl)cc1 (stereo not shown) [10-H22, 2-chloro-1-(4-methoxyphenyl)propan-1-one]",105.938%
18,"COc1ccc(C=C(C#N)C(=O)Nc2ccc(Cl)c(Cl)c2)cc1 [8-C03, 2-cyano-N-(3,4-dichlorophenyl)-3-(4-methoxyphenyl)prop-2-enamide]",94.2739%
19,"C=CC(=O)N[C@H]1C[C@H](S(C)(=O)=O)C1 [3-D18, N-[(1r,3r)-3-methanesulfonylcyclobutyl]prop-2-enamide]",110.405%
20,"CS(=O)(=O)N1CCC(N(CC(F)F)C(=O)CCl)CC1 [5-O12, 2-chloro-N-(2,2-difluoroethyl)-N-(1-methanesulfonylpiperidin-4-yl)acetamide]",89.9818%
21,"C=CC(=O)N(C)Cc1ccnn1CC [1-F07, N-[(1-ethyl-1H-pyrazol-5-yl)methyl]-N-methylprop-2-enamide]",110.418%
22,"C=CC(=O)NCc1ccnc(N2CCN(c3ccc(F)cc3)CC2)c1 [1-M11, N-({2-[4-(4-fluorophenyl)piperazin-1-yl]pyridin-4-yl}methyl)prop-2-enamide]",84.7473%
23,"N#CC(=Cc1ccc(-c2ccc(Cl)cc2)o1)C(=O)NC1CC1 [9-K16, 3-[5-(4-chlorophenyl)furan-2-yl]-2-cyano-N-cyclopropylprop-2-enamide]",86.8914%

row,SMILES,% of control remaining
1,"N#CC(=Cc1ccc(OC(F)F)cc1)C(=O)Nc1nccs1 [8-F14, 2-cyano-3-[4-(difluoromethoxy)phenyl]-N-(1,3-thiazol-2-yl)prop-2-enamide]",95.6017%
2,"CC(Cl)C(=O)Nc1ccccc1C(=O)c1ccccc1 (stereo not shown) [6-G10, N-(2-benzoylphenyl)-2-chloropropanamide]",105.854%
3,"CC(Cl)C(=O)NCCC1=CCCCC1 (stereo not shown) [6-E11, 2-chloro-N-[2-(cyclohex-1-en-1-yl)ethyl]propanamide]",91.8537%
4,"N#CC(=Cc1ccc(F)cc1)C(=O)Nc1ccccc1C(F)(F)F [8-I18, 2-cyano-3-(4-fluorophenyl)-N-[2-(trifluoromethyl)phenyl]prop-2-enamide]",106.888%
5,"C=CC(=O)Nc1nc(-c2cccs2)cs1 [1-D08, N-[4-(thiophen-2-yl)-1,3-thiazol-2-yl]prop-2-enamide]",97.0549%
6,"O=C(CCl)NCC1(c2ccc3c(c2)OCCO3)CCCC1 [4-I11, 2-chloro-N-{[1-(2,3-dihydro-1,4-benzodioxin-6-yl)cyclopentyl]methyl}acetamide]",92.2344%
7,"C=CC(=O)NCc1ccsc1S(N)(=O)=O [2-J15, N-[(2-sulfamoylthiophen-3-yl)methyl]prop-2-enamide]",115.231%
8,"C=CC(=O)Nc1ccccc1C1CC1(F)F (stereo not shown) [1-M15, N-[2-(2,2-difluorocyclopropyl)phenyl]prop-2-enamide]",110.066%
9,"N#CC(=Cc1ccsc1)C(=O)Nc1cccc2ccccc12 [9-M09, 2-cyano-N-(naphthalen-1-yl)-3-(thiophen-3-yl)prop-2-enamide]",97.0787%
10,"COc1ccc(NC(=O)CCl)cc1S(=O)(=O)N(C)C [4-E15, 2-chloro-N-[3-(dimethylsulfamoyl)-4-methoxyphenyl]acetamide]",109.385%
11,"Cc1ccc(C(=O)c2ccccc2)c(NC(=O)CCl)c1 [4-B19, N-(2-benzoyl-5-methylphenyl)-2-chloroacetamide]",107.48%
12,"CC(Cl)C(=O)N[C@H]1C[C@H](C)S(=O)(=O)c2sccc21 (stereo partly drawn) [6-B22, 2-chloro-N-[(2S,4S)-2-methyl-1,1-dioxo-2H,3H,4H-1lambda6-thieno[2,3-b]thiopyran-4-yl]propanamide]",105.171%
13,"C=CC(=O)Nc1ccc2c(c1)N(C)CC2 [1-G13, N-(1-methyl-2,3-dihydro-1H-indol-6-yl)prop-2-enamide]",105.495%
14,"CC(Cl)C(=O)NCCN1C(=O)CSC1=O (stereo not shown) [5-M03, 2-chloro-N-[2-(2,4-dioxo-1,3-thiazolidin-3-yl)ethyl]propanamide]",94.7177%
15,"CC(Cl)C(=O)N1CCC(c2nc(N(C)C)no2)CC1 (stereo not shown) [6-F05, 2-chloro-1-{4-[3-(dimethylamino)-1,2,4-oxadiazol-5-yl]piperidin-1-yl}propan-1-one]",116.098%
16,"C=CC(=O)NCC1CCCN1S(=O)(=O)CC (stereo not shown) [3-F19, N-{[1-(ethanesulfonyl)pyrrolidin-2-yl]methyl}prop-2-enamide]",99.6082%
17,"CC(Cl)C(=O)NCCc1ccnn1C (stereo not shown) [7-I21, 2-chloro-N-[2-(1-methyl-1H-pyrazol-5-yl)ethyl]propanamide]",97.9592%
18,"Cc1c(Cl)cccc1NC(=O)C(C#N)=Cc1cccs1 [9-B05, N-(3-chloro-2-methylphenyl)-2-cyano-3-(thiophen-2-yl)prop-2-enamide]",105.768%
19,"CC(c1cccc([N+](=O)[O-])c1)N(C)C(=O)CCl (stereo not shown) [6-G06, 2-chloro-N-methyl-N-[1-(3-nitrophenyl)ethyl]acetamide]",70.6829%
20,"Cc1cc(C)c(C=C(C#N)C(=O)Nc2nccs2)cc1C [8-P21, 2-cyano-N-(1,3-thiazol-2-yl)-3-(2,4,5-trimethylphenyl)prop-2-enamide]",108.216%
21,"O=C(CCl)c1sccc1Cl [10-K11, 2-chloro-1-(3-chlorothiophen-2-yl)ethan-1-one]",10.3125%
22,"C=CC(=O)NC1CCCN(C(=O)CCC(F)(F)F)C1 (stereo not shown) [1-B03, N-[1-(4,4,4-trifluorobutanoyl)piperidin-3-yl]prop-2-enamide]",102.681%
23,"COc1ccc(C=C(C#N)C(=O)Nc2cccc3c2C(=O)NC3=O)cc1 [8-F13, 2-cyano-N-(1,3-dioxo-2,3-dihydro-1H-isoindol-4-yl)-3-(4-methoxyphenyl)prop-2-enamide]",118.838%
